Source: PubChem BioAssay AID662 (National Center for Advancing Translational Sciences (NCATS), 2007)
“And” between values parts separate entries of the source, which are not always exact repeats. Equal values may be shown once. Among all 71,000 compounds or so, about 1,800 (2.5%) were called active. Inconclusive results, whose numbers are uncertain, are shown with a selection of clear calls. The call rests on the fitted dose curve; in most records, active means well fitted activation curve with a large enough effect in the signal ratio, with a control signal flat (not every such curve was filed as active); inconclusive means small, poorly fitted or top-dose-only effect, or effect the other way, or a change in a side signal; inactive means flat fitted curve, though single readings scatter; the % refers to the signal ratio. Potencies of inconclusive entries are doubtful fits and often do not repeat.

Experiment: Cell signaling CRE-BLA (Fsk stim); on activity change, negative = inhibition: % of control where 0% means no effect
Conditions: CHO CRE-bla reporter (cAMP response element driving beta-lactamase), forskolin EC10, beta-lactamase ratio; activity change, negative = inhibition: at 38.2 µM (top of the series) unless noted
Method in brief: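 Titrated compounds plus EC10 NKH 477 on CHO CRE-bla cells, 3 h, 37 °C. CCF4, 2 h RT. Ratio 460/530 nm → AC50.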
Potency means the concentration at half of the fitted maximal effect; tags describe the fitted curve by direction and shape.

Structure (SMILES)	activity change, negative = inhibition	Potency
O=C(NCc1ccco1)c1cc2c(s1)CCCCC2	inconclusive: -22.9%	–
Cn1c(=O)c(-c2cccs2)nc2cnc(OCc3ccccc3)nc21	–	inconclusive: 6.31 µM [rising, partial curve]
Cc1ccc(NC(=O)C2C(=O)N(CCO)C3(C)CC2c2ccccc2O3)cc1 (configuration not stated)	inconclusive: -9.91%	–
COC(=O)C1=C(C)NC(C)=C(C(=O)OC)C1c1ccc(OC(=O)c2ccco2)cc1	inactive	–
CCOc1ccc(C2CC(c3cccc(OC)c3OC)n3nnnc3N2)cc1Cl (configuration not stated)	–	inconclusive: 7.94 µM [rising, partial curve, poor fit]
CCOc1ccc(NC(=O)N(C2CCCCC2)C(C)c2ccncc2)cc1 (configuration not stated)	–	inconclusive: 10 µM [falling, partial curve]
CN1CCN(c2ncnc3ccc(-c4ccc5c(c4)OCO5)cc23)CC1	–	inconclusive: 10 µM [rising, single point]
O=c1[nH]c(NC2CCCCC2)nnc1Cc1ccccc1	inconclusive: -0.94%	–
CCCCOC(=O)CSc1nnc(-c2cc(OC)c(OC)c(OC)c2)o1	inconclusive: 25.2%	–
COc1cc2c(cc1NC(=O)CSCC(=O)O)oc1ccccc12	inactive	–
COc1ccccc1N1CCN(S(=O)(=O)c2ccc3c4c(cccc24)C(=O)N3C)CC1	inactive	–
CC(Sc1ncc(C#N)c(N)n1)C(=O)Nc1ccccc1 (configuration not stated)	inconclusive: -19.5%	–
CCc1cc2c(=O)n(Cc3ccco3)c(SCc3c(C)noc3C)nc2s1	inconclusive: -23.7%	–
CCOC(=O)c1c(C)oc2ccc(NS(=O)(=O)c3ccc4c5c(cccc35)C(=O)N4)cc12	–	inconclusive: 10 µM [rising, partial curve]
O=C(O)c1ccccc1C(=O)NCc1ccc(F)cc1	inconclusive: 7.41%	–
c1ccc2c(c1)ccc1cc3c(ccc4ccccc43)cc12	inconclusive: 13%	–
CCN1CCC[C@@H](OC(=O)C(c2ccccc2)c2ccccc2)C1	inactive	–
CN(C(=O)COc1cc(=O)n(C)c2ccccc12)c1cccc(Cl)c1	inconclusive: 23.3%	–
CN1CCN(CCCN2c3ccccc3Sc3ccc(C(F)(F)F)cc32)CC1	inactive	–
COCCOC(=O)C1=C(C)NC2=C(C(=O)CC(C)(C)C2)C1c1ccc2c(c1)OCO2 (configuration not stated)	inconclusive: 17.4%	–
O=C(C1CCCN(S(=O)(=O)c2cccs2)C1)N1CCc2ccccc2C1 (configuration not stated)	inconclusive: 3.54%	–
O=C(NCc1ccccn1)Nc1cccc(NC(=O)NCc2ccccn2)c1	inconclusive: 14.5%	–
O=S(=O)(NCc1cn2ccsc2n1)c1ccc2c(c1)OCCO2	inactive	–
CCOC(=O)Cc1cnc(NC(=O)NC(C(=O)OCC)(c2ccccc2)C(F)(F)F)s1 (configuration not stated)	inactive	–
c1ccc2c(-c3nc(-c4ccncc4)no3)cccc2c1	–	inconclusive: 12.6 µM [rising, single point]
CS(=O)(=O)N(CC(=O)N1CCN(c2ccccc2F)CC1)c1cccc(C(F)(F)F)c1	inactive	–

Structure (SMILES)	activity change, negative = inhibition	Potency
COC(=O)Nc1nc2ccc(C(=O)c3cccs3)cc2[nH]1	–	active: 1.26 µM and active: 501 nM and active: 79.4 nM
Cc1cc(C)cc(Nc2cc(C)nc3nc(C)nn23)c1	–	inconclusive: 10 µM [rising, partial curve]
CC1CCN(c2oc(-c3cccc4ccccc34)nc2C#N)CC1	–	active: 10 µM
COc1ccc(N2CCN(c3cc(C)c4ccc(O)cc4n3)CC2)cc1	inactive	–
O=C(/N=C1\NC(=O)C(F)(C(F)(F)F)S1)NC1CCCCC1 (configuration not stated)	inactive	–
N#Cc1cc(-c2ccccc2)nn1-c1ccccc1	inactive	–
O=c1c2ccccc2nc(-c2ccco2)n1CCCn1ccnc1	–	inconclusive: 12.6 µM [rising, single point]
CCC1Cc2c(nc3c4c(nc(N5CCOCC5)c(C#N)c24)NC(C)=N3)O1 (configuration not stated)	–	inconclusive: 10 µM [rising, partial curve]
COc1ccc(NC(=O)Nc2ncn(Cc3cccc(C(F)(F)F)c3)n2)cc1OC	–	inconclusive: 6.31 µM [rising, partial curve]
Cc1cc(C)n(-c2ccc(C(=O)Nc3nnc(C4CC4)s3)cc2)n1	inactive	–
CN=C(NC#N)NCCSCc1csc(N=C(N)N)n1	inactive	–
O=C(CCn1nnc2ccccc2c1=O)N[C@H](C(=O)O)c1ccccc1	inactive	–
Cc1ccc(NC(=O)CSc2nc3c(c(=O)[nH]2)CCC3)cc1C	inconclusive: -4.48%	–
Cc1cc(C)c2c(CN3CCN(C/C=C/c4ccccc4)CC3)cc(=O)oc2c1	inconclusive: -5.56%	–
C=CCn1c(SCC(=O)/C(C#N)=C(\C)N)nnc1C1CCCCC1	–	inconclusive: 0.398 µM [falling, partial curve]
O=C(CNCC1CCCO1)Nc1ccccc1-n1cccc1 (configuration not stated)	inconclusive: -10.1%	–
COc1ccc(C2/C(=C(\O)c3ccc4c(c3)OCCO4)C(=O)C(=O)N2CCCN(C)C)c(OC)c1 (configuration not stated)	inconclusive: 11.3%	–
Clc1cccc(-c2nnc(SCc3nc4ccccc4[nH]3)n2Cc2ccco2)c1	–	inconclusive: 2.51 µM [rising, partial curve, poor fit]
Cc1cc(C)cc(N(CC(=O)Nc2cccc(C)n2)S(=O)(=O)c2c(C)noc2C)c1	inactive	–
COC(=O)c1cc(OC)c(OC)cc1NC(=O)c1cc(C)on1	inconclusive: 25.9%	–
CCOCCCNc1nc2c([nH]1)c(=O)n(C)c(=O)n2C	inconclusive: 11.7%	–
CCCc1ccc(OCC(O)CN2CCN(c3ccccc3)CC2)cc1 (configuration not stated)	–	inconclusive: 5.01 µM [falling, single point]
C=CCOc1nc2c(c(=O)n(C)c(=O)n2C)n1C	–	inconclusive: 3.98 µM [rising, partial curve]
C=C1C(=O)C=C2CN(C(=O)c3ccccc3)[C@@](Cc3ccc(OC)cc3)(C(=O)OC)[C@@H]12	–	inconclusive: 0.631 µM [falling, full curve]
CCOC(=O)N/C(N)=N/c1nc2ccccc2s1	inconclusive: 17% [at 7.6 µM]	–
O=C(c1ccco1)N1CCN(C(=O)N2c3ccccc3Sc3ccccc32)CC1	–	active: 1 µM
